Data: paper PMC8826447 (Nature Communications, 2022)

Biological target: T1, TLK2 (LRF/AAA), kinase active (human, UniProt Q86UE8 1-772, L16A | R19A | F20A)
T1 sequence (looked up): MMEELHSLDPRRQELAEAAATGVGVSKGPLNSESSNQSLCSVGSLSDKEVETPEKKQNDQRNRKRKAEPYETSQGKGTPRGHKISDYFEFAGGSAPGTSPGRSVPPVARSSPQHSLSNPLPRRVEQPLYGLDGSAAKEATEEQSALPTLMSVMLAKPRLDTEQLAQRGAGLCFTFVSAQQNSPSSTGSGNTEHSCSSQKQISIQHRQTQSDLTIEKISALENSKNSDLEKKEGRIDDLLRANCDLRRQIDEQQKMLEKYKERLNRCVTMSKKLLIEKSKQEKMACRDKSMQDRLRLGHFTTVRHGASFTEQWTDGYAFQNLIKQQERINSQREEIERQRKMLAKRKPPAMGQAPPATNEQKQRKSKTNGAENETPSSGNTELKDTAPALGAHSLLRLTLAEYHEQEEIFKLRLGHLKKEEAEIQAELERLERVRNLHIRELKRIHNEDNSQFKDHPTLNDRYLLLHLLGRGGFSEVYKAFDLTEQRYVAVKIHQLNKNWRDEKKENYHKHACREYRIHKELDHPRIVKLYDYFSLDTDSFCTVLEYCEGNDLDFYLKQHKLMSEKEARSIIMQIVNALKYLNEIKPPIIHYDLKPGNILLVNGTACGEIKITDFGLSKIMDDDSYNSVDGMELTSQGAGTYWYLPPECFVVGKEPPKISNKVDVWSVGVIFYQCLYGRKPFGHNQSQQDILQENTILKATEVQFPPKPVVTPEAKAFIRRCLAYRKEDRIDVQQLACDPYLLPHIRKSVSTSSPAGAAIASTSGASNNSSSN
Assay: cell-based or functional assay

B1: FLAG-tagged ASF1a D88A (natural protein)
chain: not shown
in vitro kinase assay ([γ-32P]ATP): impact of the ASF1a H3 binding interface mutation D88A on phosphorylation by TLK2 (LRF/AAA): < 2 fold

B2: FLAG-tagged ASF1a V94R (natural protein)
chain: not shown
in vitro kinase assay ([γ-32P]ATP): impact of the ASF1a H3 binding interface mutation V94R on phosphorylation by TLK2 (LRF/AAA): < 2 fold
